Measurements taken from PubChem BioAssay AID485344 (National Center for Advancing Translational Sciences (NCATS), 2010).
Hit rate of the full screen: of about 340,000 compounds, about 6,900 (2%) were called active. Rule as the data show it: active = inhibition above about 30%; inactive = below that, where a call was filed. This is a selection; strong and weak results do not stand in their true shares. The source gives no active or inactive call for entries shown without one.

Each molecule was assayed against D(2) dopamine receptor (Homo sapiens) (UniProt P14416) (assay: HTS Assay for Allosteric Antagonists of the Human D2 Dopamine Receptor: Primary Screen for Antagonists). Details: HEK293 TREx D2 cells, calcium flux, dopamine EC80; at 10 µM; stronger effect = higher value.
How it was run: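 Inhibition of EC80 dopamine-driven calcium flux, recorded kinetically, defines activity here; cells are a tetracycline-induced HEK293 T-REx line expressing force-coupled D2.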
Also: 0% is about no effect.

Sequence of UniProt P14416 (P14416 whole entry, looked up): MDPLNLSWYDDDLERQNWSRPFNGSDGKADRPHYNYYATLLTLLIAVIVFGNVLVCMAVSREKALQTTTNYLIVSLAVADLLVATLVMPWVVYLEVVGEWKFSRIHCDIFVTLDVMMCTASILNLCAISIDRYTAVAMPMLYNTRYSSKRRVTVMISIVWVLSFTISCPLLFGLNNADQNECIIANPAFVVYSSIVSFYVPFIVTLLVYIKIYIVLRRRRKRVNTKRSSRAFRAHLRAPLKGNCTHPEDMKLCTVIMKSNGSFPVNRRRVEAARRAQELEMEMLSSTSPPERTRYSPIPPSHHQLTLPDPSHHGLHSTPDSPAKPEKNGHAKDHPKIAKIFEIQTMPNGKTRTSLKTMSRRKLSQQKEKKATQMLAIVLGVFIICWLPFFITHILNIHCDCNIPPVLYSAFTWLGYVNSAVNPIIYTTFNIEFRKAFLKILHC

| Structure (SMILES) | inhibition |
| --- | --- |
| COc1ccc2c(c1)c1c(c(=O)n(CCc3ccccc3)c(=O)n1Cc1cccc(Cl)c1)n2C | 0.5% |
| CC1CCN(S(=O)(=O)c2ccc3c(c2)CCN3C(=O)Nc2ccccc2Br)CC1 | -1.83% |
| Fc1ccc(N2CCN(c3nc4ccccc4c4nc(-c5ccccc5)nn34)CC2)cc1 | 18.5% |
| COc1ccc2c(c1)cc(CNc1ccc(OC)c(OC)c1)c(=O)n2CC(=O)Nc1ccccc1C | 0.571% |
| Cc1ccc(S(=O)(=O)Nc2cccc(-c3ccc(N4CCC(C)CC4)nn3)c2)s1 | -2.97% |
| COc1ccc(OCC(=O)Nc2ccc(-c3nc4cc(C)cc(C)c4o3)cc2)cc1 | 1.1% |
| COc1cccc2c1cc1c(=O)n(CC(=O)N3CCN(c4cccc(C)c4C)CC3)nc(C)n12 | -24.1% |
| CCOc1ccccc1Nc1nc2ccccc2c2nncn12 | 7.1% |
| CCOc1ccc(CNC(=O)c2ccc3oc(=O)n(Cc4ccccc4)c3c2)cc1 | -0.479% |
| COc1ccc(CCNC(=O)CCc2c(C)nc3c4c(C)cc(C)nc4nn3c2C)cc1OC | -0.07% |
| Cc1ccc(CNC(=O)C2CCN(S(=O)(=O)N3CCCCC3)CC2)cc1 | -7.94% |
| Cc1ccc(Cn2nnc3c(=O)[nH]c(C4CCN(C(=O)Cc5ccccc5F)CC4)nc32)cc1 | 2.51% |
| CC(=O)c1c(C)oc2ccc(N(C(=O)Oc3ccccc3)S(=O)(=O)c3ccc(Cl)cc3)cc12 | -16.7% |
| CCc1cccc(NS(=O)(=O)c2c(C)[nH]c(=O)[nH]c2=O)c1 | 7.32% |
| Cc1c(Cl)cccc1-n1ncc(C(=O)N2CCN(c3ncccn3)CC2)c1C1CCN(C(=O)OC(C)(C)C)CC1 | -0.593% |
| Cc1ccc(S(=O)(=O)N(CC(=O)Nc2cccnc2)c2cccc([N+](=O)[O-])c2)cc1 | active: 50.2% |
| Cc1ccc(NC(=O)C(Cc2ccccc2)NS(=O)(=O)c2ccc3c(c2)c(=O)n(C)c(=O)n3C)c(C)c1 (stereo not given) | 3.4% |
| CCN(CC)c1ccc(NC(=O)c2cccn2-c2nnc(N3CCCCC3)s2)c(C)c1 | 6.11% |
| COc1cc2c(cc1OC)CN(C(=O)CSc1ccc(F)cc1)CC2 | active: 61.3% |
| CC(C)OC(=O)c1cccc(NC(=O)Cn2nnc3sc4c(c3c2=O)CCCC4)c1 | 0.111% |
| Cc1ccc(-n2cc(-c3ccccc3)c3c(N4CCCCC4)ncnc32)cc1 | -1.59% |
| Cc1cccc(Nc2nnc(-c3ccc(C)c(S(=O)(=O)N4CCCCC4)c3)c3ccccc23)c1 | -0.675% |
| Cc1ccc(-c2cc(C(=O)Nc3ccc(SC(F)F)cc3)no2)cc1F | 24.8% |
| CCCOc1ccc(CNC(=O)CCCn2ncn3c(cc4sc(CC)cc43)c2=O)cc1 | 3.26% |

| Structure (SMILES) | inhibition |
| --- | --- |
| COc1ccccc1CNC(=O)c1c[nH]c2ccc(S(=O)(=O)Nc3cc(C)cc(C)c3)cc2c1=O | -13.2% |
| CCCOc1ccc(NC(=O)CC2C(=O)N(c3ccccc3)C(=O)N2Cc2ccco2)cc1 (stereo not given) | -11.6% |
| CCNS(=O)(=O)c1ccc(NC(=O)CSc2nc(-c3ccco3)cc(C(F)(F)F)n2)cc1 | -1.67% |
| COc1cccc(NC(=O)CCC(=O)N2Cc3ccccc3Oc3ncccc32)c1 | -7.4% |
| Cc1ccc(-n2c3c(cc(C(=O)Nc4ccccc4C(N)=O)c2=O)C(=O)CC(C)(C)C3)cc1 | 21.9% |
| CCOc1ccccc1NC(=O)c1c(NC(=O)COc2ccccc2)sc2c1CCCC2 | 2.41% |
| Cc1cc(C)c(NC(=O)CSc2ccc(-c3ccccn3)nn2)c(C)c1 | 1.14% |
| CN(C)CCNC(=O)CN1C(=O)COc2ccc(S(=O)(=O)N3CCCC3)cc21 | -4.47% |
| COc1ccc(C2=Nc3ccccc3NC(c3cccs3)=N2)cc1 | 16.5% |
| Cc1ccc2nc(SCC(=O)NCC3CCCO3)c(C#N)cc2c1 (stereo not given) | active: 40.7% |
| O=C1CC(c2ccccc2)Sc2ccccc2N1Cc1ccc(F)cc1 (stereo not given) | -2% |
| CCOc1ccccc1/C=c1\sc2nc(-c3ccco3)nn2c1=O | active: 33.5% |
| COc1ccc(NC(=O)CSc2nccn2Cc2ccc3c(c2)OCO3)cc1 | 1.99% |
| COc1ccc(C)cc1NC(=O)C(=O)NCC(c1cccnc1)N1CCc2ccccc21 (stereo not given) | 8.93% |
| COCCc1nn2c(=O)cc(COC(=O)C(c3ccccc3)c3ccccc3)nc2s1 | 3.56% |
| CCc1ccc(NC(=O)CC2C(=O)N(c3cccc(C)c3)C(=O)N2Cc2ccc(F)cc2)cc1 (stereo not given) | 1.56% |
| Cc1cc(NC(=O)n2ncc3c(C)cccc32)ccc1Br | 6.34% |
| COc1cccc(CCNC(=O)c2c(O)nc3c(C)cccn3c2=O)c1 | 1.53% |
| CC(Sc1nnc2ccc3ccccc3n12)C(=O)Nc1ccc(Cl)cc1 (stereo not given) | -3.78% |
| COc1ccccc1NC(=O)Cn1c(SCC(=O)Nc2ccc(F)cc2)nc2ccccc21 | -11.1% |
| Cc1nc2ccn(Cc3ccccc3)c(=O)c2cc1C(=O)N1CCN(c2ccc(F)cc2)CC1 | -2.06% |
| Cc1ccc(NC(=O)Cc2ncc(C(F)(F)F)cc2Cl)cc1Cl | active: 43.9% |
| CN(CCN1CCc2ccccc2C1)Cc1nc(-c2ccc3c(c2)OCO3)no1 | active: 43.6% |
| CCc1ccc(NC(=O)CC2C(=O)N(c3cccc(OC)c3)C(=O)N2Cc2ccc(F)cc2)cc1 (stereo not given) | 5.59% |

| Structure (SMILES) | inhibition |
| --- | --- |
| COc1cc(NC(=O)CCc2c(C)nn(-c3ccc(N4CCCCC4)nn3)c2C)cc(OC)c1OC | -0.115% |
| O=C(C1CCN(S(=O)(=O)c2ccccc2)CC1)N1CCN(c2ccccc2F)CC1 | active: 32.1% |
| COc1ccc(C)cc1NC(=O)c1cc(S(=O)(=O)N2CCCCC2)c[nH]1 | 9.78% |
| Cc1cc(C)cc(NC(=O)CCCc2nc(-c3ccco3)no2)c1 | 17.7% |
| CCN(CC)CCn1c(NCc2cccc(OC)c2)nc2ccccc21 | active: 44.4% |
| Cc1cc(-n2c(C)nc3ccccc3c2=O)ccc1NC(=O)c1ccccc1[N+](=O)[O-] | -23% |
| COc1ccc(-c2cc3nc(C4CCN(C(=O)OC(C)(C)C)CC4)c(C(=O)Nc4cc(C)cc(C)c4)cn3n2)cc1 | 6.87% |
| CCC(Sc1nnc2c3ccccc3n(CC)c2n1)C(=O)Nc1nnc(C(C)C)s1 (stereo not given) | 2.46% |
| Cn1c(=O)cc(SCC(=O)N2CCN(c3ccccc3F)CC2)c2ccccc21 | -6.42% |
| CCOc1ccc(NC(=O)CC2C(=O)N(c3cccc(C)c3)C(=O)N2Cc2cccs2)cc1 (stereo not given) | -21.2% |
| CCCN1CCN(CCCNC(=O)c2ccc3nc(Cc4ccccc4)oc3c2)CC1 | -9.51% |
| CCCCN1CC(c2nc3ccccc3n2CCCCOc2cccc(C)c2C)CC1=O (stereo not given) | -16.4% |
| CCOc1ccc(CN(CCc2ccc3c(c2)OCO3)Cc2cc(OC)c(OC)cc2OC)cc1 | 15.1% |
| COC(=O)c1c(N)n(-c2ccc(OC)c(OC)c2)c2nc3ccccc3nc12 | -12.5% |
| Cc1ccc(CNC(=O)Cn2c(=O)n(-c3ccc(C)cc3)c(=O)c3c2c2cc(C)ccc2n3C)cc1 | -1.05% |
| COC(=O)c1cc2occc2n1CC(=O)Nc1ccc(N(C)C)cc1 | -0.876% |
| N#Cc1nc(-c2ccc(COc3ccccc3)o2)oc1N1CCCCC1 | -0.971% |
| Cc1ccc(CNC(=O)C(=O)NCC(c2ccco2)S(=O)(=O)c2ccccc2)cc1 (stereo not given) | -3.12% |
| Cc1ccccc1NC(=O)Cn1c(=O)n(Cc2ccccc2)c(=O)c2c(C)c(C)sc21 | 2.49% |
| N#CC1=C2SCN(C3CCCCC3)CN2C(=O)CC1c1ccc(Cl)cc1 (stereo not given) | 12.3% |
| O=C(NCc1ccccc1F)c1ccc(CSc2nc3cccnc3n2Cc2ccccc2)cc1 | -8.89% |
| Cc1nn2c(=O)cc(COC(=O)c3ccccc3NC(=O)COc3ccccc3C)nc2s1 | -17.7% |
| CN1C(=O)C(N=Nc2ccccc2C(=O)O)N(C)C1=S (stereo not given) | active: 40.1% |
| COc1cc(/C=C/C(=O)OCC(=O)NC(=O)NC(C)C)ccc1OCC#N | active: 46.3% |

| Structure (SMILES) | inhibition |
| --- | --- |
| Cc1ccc(SCc2nc(-c3ccc(C(=O)NCCc4ccc(Cl)cc4)cc3)oc2C)cc1 | 10.7% |
| CCOC(=O)c1cc(OC(=O)c2ccccc2Cl)n(-c2ccccc2)n1 | 9.25% |
| CCC(=O)N1c2ccc(S(=O)(=O)N3CCN(CC)CC3)cc2CC1C (stereo not given) | active: 38.6% |
| COc1ccc(OC)c(NC(=O)[C@H](CSCc2ccccc2)N2Cc3ccccc3C2=O)c1 | -25.9% |
| COC(=O)c1cc2sc(Cl)cc2n1CC(=O)Nc1cc(C)cc(C)c1 | -15.4% |
| COc1ccc(OC)c(CNc2nc3ccc(C)cc3n3nnnc23)c1 | -0.21% |
| COc1cc(Cl)c(C)cc1NC(=O)CC1SC(N2CCOCC2)=NC1=O (stereo not given) | active: 99.2% |
| Cn1cc(S(=O)(=O)N2CCN(c3ccccc3F)CC2)c(=O)n(C)c1=O | active: 31.6% |
| CNC(=S)N/N=C/c1ccccc1OCC(=O)O | active: 31.4% |
| CC1CCN(c2nc3ccc(C(=O)N4CCN(c5ccccc5)CC4)cc3s2)CC1 | -8.19% |
| CCOc1ccc(N(CC)C(=O)c2cc3c(s2)-c2ccccc2OC3)cc1 | 5.98% |
| CCC(=O)N1CCc2cc(CNC(=O)c3ccc(F)cc3)ccc21 | 10.8% |
| COc1cccc(N2CCN(C(=O)c3nn(C)c4c3CSc3ccc(C)cc3-4)CC2)c1 | -8.85% |
| N=C1C(c2nc3ccccc3s2)=C(O)CN1NC(=O)c1ccc([N+](=O)[O-])cc1 | active: 42.3% |
| c1ccc(N2CCN(Cc3cn4cccnc4n3)CC2)cc1 | active: 48.5% |
| COc1cc(C2C(=O)N(C3CCCCC3)CC(=O)N2C2CCCCC2)ccc1OC(C)C (stereo not given) | 13.2% |
| CCSc1nc(-c2ccccc2F)nc2c1Cc1c(CO)cnc(C)c1O2 | -2.52% |
| COc1ccc(CCNC(=O)C(C)n2c(=O)cc(-c3ccccc3)c3c(C)nn(C)c32)cc1OC (stereo not given) | 1.13% |
| Cc1cc(N2CCCCC2)nc2ccc(NC(=O)CCC(=O)N3CCN(c4ccccc4)CC3)cc12 | -15.9% |
| O=C(CSCc1ccc(F)cc1)N1CCc2c([nH]c3ccccc23)C1c1ccc(Cl)cc1 (stereo not given) | 7.91% |
| COc1cc(C(=O)Nc2ccccc2-c2nc(-c3ccc(C)cc3)no2)cc(OC)c1OC | 11.3% |
| COc1ccc(NC(=O)CN2C(=O)c3cccnc3Sc3ccccc32)cc1OC | 10.1% |
| COc1cc(NC(=O)COC(=O)Cc2ccsc2)cc(OC)c1 | active: 30.5% |
